In the supplement of paper PMC3334620:
The full ranking holds about 33,000 sequences; the median of “E-score (-0.5 to 0.5)” is about -0.017, and the highest 2% start at about 0.3. The list shows a part of the results.

molecular target: T1, Sut1 (UniProt P53032); assay: PBM E-score (8-mer binding enrichment) (E-score (-0.5 to 0.5)); higher = stronger / more preferred TF binding; most listed sequences are background and not binding sites; settings: protein concentration: 200 nM; construct: GST-full length
T1 sequence: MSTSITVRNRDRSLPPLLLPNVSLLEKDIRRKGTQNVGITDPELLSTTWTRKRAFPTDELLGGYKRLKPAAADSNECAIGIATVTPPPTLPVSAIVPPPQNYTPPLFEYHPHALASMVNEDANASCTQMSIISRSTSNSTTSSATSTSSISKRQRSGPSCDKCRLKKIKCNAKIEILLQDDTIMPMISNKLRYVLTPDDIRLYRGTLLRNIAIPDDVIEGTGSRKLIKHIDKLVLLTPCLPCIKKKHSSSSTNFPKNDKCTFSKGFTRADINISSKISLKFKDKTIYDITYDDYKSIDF
Procedure, shortened: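 Each ungapped eight-base word and its reverse complement, pooled, received an E-score from the Universal PBM Analysis Suite. Underlying scans, normalised with masliner, recorded fluorescent anti-GST bound to GST-tagged yeast transcription factors. These were applied at about 100-200 nM to universal all-10-mer Agilent arrays double-stranded by primer extension.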

In order of rising “PBM E-score” value:
1. CCCCCCGG  -0.367
2. CCCGCTCC  -0.364
3. CCCTGACG  -0.359
4. CCCAGGGG  -0.327
5. GATGGGGC  -0.294
6. ACGGCAGG  -0.293
7. GTTCAGGA  -0.276
8. GCCCACCC  -0.242
9. CCCTGTGA  -0.24
10. CTCTCCCA  -0.23
11. GGGTGCGA  -0.217
12. AGGCCTCC  -0.207
13. GCCAAGAC  -0.206
14. GGAGGCCC  -0.198
15. GCTAACCA  -0.188
16. CTGGGGTA  -0.187
17. AGGCATCC  -0.18
18. CGAACAGC  -0.179
19. ATTGGCTG  -0.179
20. ACCCGAAG  -0.178
21. AAGGCCGC  -0.176
22. AGGCAGAA  -0.169
23. AGAGATCC  -0.167
24. ATGACCAG  -0.165
25. CAGTTGGC  -0.162
26. CAGGATAC  -0.16
27. CATGTGGC  -0.152
28. GGGTCTAA  -0.14
29. AAGGCTAT  -0.13
30. CCACCCAG  -0.129
31. GGGCTCCA  -0.126
32. CAGGTACA  -0.124
33. ACGCGATA  -0.123
34. CACATACG  -0.118
35. ACGTTCGA  -0.115
36. GAGACGAC  -0.112
37. CGACCTAC  -0.104
38. CTATTGTC  -0.099
39. AGATTGGC  -0.0976
40. ACAAGACT  -0.0974
41. CTGTTCGC  -0.096
42. ACCCGCGC  -0.0941
43. TCACCTCA  -0.09
44. ACGGGAAT  -0.0866
45. GTCGGGTA  -0.0857
46. CTGACCAC  -0.0844
47. ACGATAGG  -0.0827
48. GGTGGACA  -0.0811
49. ATTCGCCA  -0.0811
50. GTGACAAC  -0.0779
51. CGTGATGA  -0.0744
52. AGAGCAGG  -0.0733
53. AGCCCTAG  -0.0689
54. GCGTTAGC  -0.0681
55. CTAGCCGC  -0.0673
56. ACCAAGTA  -0.0637
57. AAGTCGCT  -0.0636
58. CCCGGGGC  -0.0629
59. ATGGCCAT  -0.062
60. CATATTCC  -0.0615
61. CTGTGAAG  -0.0569
62. CGTGTACC  -0.0552
63. GATAGTCA  -0.0531
64. GGTTCATA  -0.0524
65. GCTAGAGA  -0.0509
66. ACGGTTCG  -0.0488
67. TATCGAGA  -0.0451
68. AGATCACA  -0.04
69. AAGCCTCC  -0.0395
70. ATTGCAAG  -0.0371
71. CGATCTAC  -0.0336
72. AGGTGTCA  -0.0314
73. GGCCTACA  -0.0249
74. CGACTCTC  -0.0232
75. CGAGGAAC  -0.019
76. GATGGAAA  -0.0163
77. AACTCAGT  -0.0134
78. GTATGGAA  -0.012
79. AATGTTGC  -0.00976
80. AACGCTCG  -0.0092
81. GAAAGACC  -0.00668
82. AATCGCCT  -0.00487
83. CAGGCACG  -0.00271
84. GTTACTAA  0.00172
85. GGCCATTA  0.00383
86. GAGATGAA  0.00583
87. TCCTCTCA  0.00795
88. CGCCGGGC  0.00809
89. GTCTGGCA  0.0139
90. CTTGATTA  0.0248
91. GTTGTGAA  0.0279
92. CTGTGTAA  0.0313
93. GGCGCGCC  0.0324
94. ATACCGTA  0.0339
95. CCTGTTAC  0.0359
96. TAGGGAAA  0.0398
97. AGAAATGC  0.048
98. AATAGCTA  0.0556
99. CCACTTAC  0.0569
100. ATCATAGG  0.0602
101. GGTTGCGA  0.061
102. GGTAGCCA  0.0621
103. CCATACAA  0.0626
104. CTTAGATA  0.0662
105. AGAGTAAC  0.0673
106. CGGGGAAC  0.0676
107. CGGCTCAA  0.0677
108. CCGGCGCC  0.0683
109. AGATGAAC  0.0685
110. GACGTTAA  0.0697
111. AAAATCTC  0.0709
112. GGGTTCAA  0.0726
113. CCGTACAG  0.0728
114. GGATTCAC  0.0757
115. ATAACACG  0.0771
116. CCGCCAAA  0.0836
117. ATTTCCCA  0.0851
118. ATAGAGTG  0.0862
119. CTTCGAGC  0.0866
120. AACTTAGG  0.0876
121. GAACCATC  0.0887
122. CCAAACTC  0.0933
123. GGGGTAGA  0.097
124. GCTCTTAA  0.0971
125. CAATCACA  0.0975
126. AAGTTGCG  0.108
127. CCTGTGAA  0.109
128. ATTCTGGA  0.11
129. GCGGATAA  0.111
130. TATTGTAA  0.117
131. ACTATTAA  0.12
132. GTTGCTAA  0.123
133. TGTTCAAA  0.126
134. AACTACAC  0.129
135. GTTGGAGA  0.129
136. AAAGCATA  0.138
137. ACCGTAGT  0.138
138. ATGTACAC  0.139
139. GAGCTTAC  0.14
140. GTATATGA  0.14
141. CAAATTAC  0.14
142. ATGAATTC  0.142
143. CTTTCATA  0.143
144. ATGCTAAT  0.148
145. CCCGAAAG  0.15
146. AATCATAT  0.157
147. CTATATCA  0.157
148. AAAATCGC  0.159
149. AAAATAGG  0.166
150. CTTAGGAA  0.172
151. AAACCCAA  0.174
152. AATCAAAC  0.176
153. GACCAAAA  0.178
154. TCAACTAA  0.181
155. AAAATGTA  0.182
156. AAAAATCA  0.183
157. ACTACAAT  0.191
158. ATAGCAAT  0.193
159. TGTGTAAA  0.194
160. ATTTACTA  0.211
161. TACACAAA  0.215
162. CACTTTCC  0.216
163. AACAATCA  0.22
164. ATCTATAA  0.23
165. CATTAAAA  0.231
166. GGAAGTTA  0.243
167. ATTTTTCG  0.248
168. AAATTCGG  0.264
169. CACGCGGA  0.283
170. CCGGATAA  0.285
171. CCGAAAAA  0.352
172. CGGGGTTA  0.382
